# Reference: the supplement of paper PMC3334620
# In all, about 33,000 sequences were measured (“E-score (-0.5 to 0.5)”: median about -0.04, highest 2% from about 0.36 on). This is one part of the list.
# Molecular target: T1, Hmlalpha2 (UniProt P0CY09)
# T1 sequence: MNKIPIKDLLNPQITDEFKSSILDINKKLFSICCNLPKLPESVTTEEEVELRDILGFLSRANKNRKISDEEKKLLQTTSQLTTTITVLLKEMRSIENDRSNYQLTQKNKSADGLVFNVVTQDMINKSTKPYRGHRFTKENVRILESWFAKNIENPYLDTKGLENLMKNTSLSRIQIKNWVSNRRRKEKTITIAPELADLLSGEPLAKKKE
# Assay: PBM E-score (8-mer binding enrichment) (E-score (-0.5 to 0.5)); higher = stronger / more preferred TF binding; most listed sequences are background and not binding sites
# Conditions: protein concentration: 200 nM; construct: GST-full length
# Summary of the method: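 Detection of bound protein used fluorescent anti-GST, with scans normalised by masliner. The proteins were GST-tagged yeast transcription factors applied at about 100-200 nM to universal all-10-mer Agilent arrays made double-stranded by primer extension. Each ungapped eight-base word, pooled with its reverse complement, was scored with an E-score from the Universal PBM Analysis Suite.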
row,Sequence,PBM E-score
1,CGACTAAG,-0.108
2,GGCACACC,-0.343
3,GTATTTAA,0.342
4,CAGGATGC,-0.19
5,AAGCATGC,0.117
6,AGCTGTGC,-0.0346
7,GAAAAGAA,0.00784
8,AGGGCCGA,-0.239
9,ACGCGGCA,0.0388
10,CGGTAGCA,-0.0327
11,AAGTAAAT,0.341
12,ATGGACAC,0.14
13,CTGCTTTC,-0.191
14,GAGGATAA,-0.0761
15,ACTGAACA,0.192
16,AGGGCTGA,-0.0502
17,AGGTAGCG,-0.0962
18,TACACATA,0.408
19,ACGCCGGC,-0.124
20,GCATATGC,-0.119
21,AGCAAGAG,-0.0688
22,AGAATGTA,0.27
23,GGTTGCAA,0.059
24,CCCGAACA,-0.123
25,ATTGGTTA,0.145

row,Sequence,PBM E-score
1,AATAGCCC,-0.116
2,AACTGCTT,-0.164
3,CGGAAATA,-0.0562
4,TACGCGGA,0.312
5,ACGCCGCG,0.00844
6,CGAAATTC,-0.0848
7,AAGTACCT,0.0583
8,ATGCTGGC,0.0473
9,ACGATCAC,-0.02
10,CGTCCCGA,-0.229
11,CCCTAGAA,-0.0707
12,ACACGTAT,0.369
13,CAGAACGG,-0.0445
14,GACTATAA,-0.0236
15,AACCACCC,-0.288
16,ACTGATCC,0.0264
17,GCAAAACC,-0.272
18,AAACAAAT,0.23
19,CTGAAACC,-0.0244
20,AATCACAG,0.1
21,CAATTACG,0.349
22,CTACCGAC,-0.135
23,ATTTTGAC,0.245
24,AAAACGGT,-0.0483
25,GCCCAGCC,-0.296

row,Sequence,PBM E-score
1,ACATACGC,0.314
2,GGCGTAAC,-0.0908
3,AAATACTT,0.208
4,ATGATACA,0.269
5,ACTGAATA,0.0738
6,AACCCGCT,-0.252
7,AACGACTA,0.168
8,AGAGACCA,-0.139
9,CTTAGGTA,0.0231
10,CGAGGTAA,0.0107
11,TCCGGCAA,-0.0191
12,TGTAAGAA,0.391
13,CAATCACG,0.0452
14,AATAATGG,-0.0485
15,TAACTAGA,0.17
16,GGTAGATA,-0.00887
17,CGGTTATC,-0.179
18,ATAAACAG,0.0861
19,CACACAAC,0.27
20,ACTGCCGA,-0.0659
21,GCTACAGC,-0.125
22,GATTGGCC,-0.226
23,AAACAGTT,-0.00224
24,GCCCCCCA,-0.349
25,ACTTTTCT,-0.145

row,Sequence,PBM E-score
1,ATGCTGCA,0.0587
2,AAGACTCA,-0.146
3,AGTTGCAA,0.121
4,ACGCACTC,0.128
5,AAACTTGA,0.00597
6,AGTAGCAT,-0.00144
7,AAGAGCCT,-0.187
8,AACGTGTG,0.233
9,ATGCTAAG,0.027
10,CTCCAATC,-0.344
11,CAGACACG,0.0667
12,GCCCAACC,-0.0785
13,ATATTGTC,0.0872
14,TCTTAAGA,-0.132
15,ATATCTAA,0.0783
16,AAATCGGG,-0.138
17,CTCGGAGA,-0.267
18,GTCAGATA,-0.0706
19,ACGCTCAC,0.00619
20,GATACAGC,-0.1
21,CTGATTGC,-0.187
22,GAACTACC,-0.0864
23,ATCATAGC,0.0754
24,AGAACAGC,0.145
25,GAACACGC,0.299

row,Sequence,PBM E-score
1,CTAATCTA,0.021
2,CTGCTGAC,-0.0195
3,GTCCTAGA,-0.00893
4,TGACGTCA,0.182
5,AAACCATG,0.0233
6,ACCTTTCA,-0.0854
7,ACGCGGCG,0.172
8,GACGATCC,-0.195
9,CTATGGGA,-0.161
10,AAGTGCCC,-0.313
11,CGAAGACC,-0.173
12,ATCCCCGG,-0.195
13,AGTCGCCA,-0.351
14,CTCTTAAG,-0.112
15,CTTTGAGC,-0.252
16,ATGCCCAT,-0.0573
17,CATCGTCG,-0.171
18,ACTGCACA,0.0941
19,GGGAAGAA,-0.0643
20,ACACAAGG,0.278
21,ATAGGTCG,-0.253
22,ATCCTGCG,0.0722
23,CATTATTC,-0.0447
24,TCCTTCCA,-0.213
25,GCACCCGC,-0.0473

row,Sequence,PBM E-score
1,CTCACCGC,-0.0262
2,AGGGTGAT,-0.155
3,CGAATCGC,-0.169
4,AGACAGCT,-0.108
5,AGTTAATA,0.271
6,CATGACCG,0.0936
7,CTTGAGAC,-0.193
8,CACGAATG,0.214
9,ATAGGTAA,0.177
10,AGACCTCT,-0.148
11,ACGCCTTC,-0.131
12,ACTGCACT,-0.0202
13,CGCAAAAC,0.153
14,ACCGGCGT,0.0886
15,TCGCTACA,0.0793
16,ATGAATGC,0.128
17,CTCATAAC,0.00391
18,ATGACAAT,0.142
19,CGCCTCTC,-0.35
20,GAATGCTC,-0.225
21,CAGGCTGA,-0.194
22,CCACCAAC,-0.0648
23,TAAAGACA,0.178
24,ACATGAAC,0.366
25,ATCACAGG,0.00303

row,Sequence,PBM E-score
1,TGCTCCAA,0.0122
2,CCATAGGC,-0.22
3,ACGAGCTG,-0.0211
4,CTTCTGAC,-0.119
5,CAAGCGCA,0.169
6,AAATTTAA,0.222
7,GAGCATAA,-0.00322
8,AATTTCTG,-0.0339
9,GTTCTGCA,0.104
10,ATACGTAG,0.257
11,ACTCAGCC,-0.256
12,CCGTGCTA,0.101
13,GTATTCAC,0.318
14,TCTCGTAA,0.256
15,ATGCTACG,0.123
16,AAACGTAC,0.0534
17,CCCAGTCG,-0.221
18,CGCATTGA,0.0737
19,ATTCAGGG,-0.063
20,CGGATGAC,-0.0916
21,CTCTGAAC,-0.193
22,CGCTTGAC,-0.0157
23,CGTATTAC,0.36
24,GAGTTTAA,0.0923
25,GACCCTAA,-0.195

row,Sequence,PBM E-score
1,ACTTCTTC,0.0141
2,GAGCAAGC,-0.165
3,AACTACAG,0.0948
4,AAGGTCAC,0.00487
5,CCCCTCTA,-0.0286
6,CCTGCTGA,0.0477
7,TCAGAAAA,0.00596
8,AGGGGGAA,-0.148
9,AATCTAGT,0.0538
10,AAGGTTGA,0.0182
11,CCGAACAA,-0.0466
12,CGTTCACA,0.213
13,CTCAGCAG,-0.149
14,CACCAGGA,-0.239
15,TACGGTGA,-0.0101
16,AAGGACTA,-0.0799
17,CTCTGCCC,-0.109
18,GCCAGGGC,-0.197
19,CGCCCTCC,-0.288
20,AGCGGGCC,-0.243
21,CGAGGGGC,-0.191
22,CCCACTCG,-0.187
23,ACCTTTCC,-0.146
24,ATTAGTTC,0.073
25,AAAAGTTG,0.0297

row,Sequence,PBM E-score
1,TAGGGCCA,-0.13
2,TAGGCTGA,-0.133
3,CGCCAATC,-0.0938
4,CAAACTCA,0.189
5,ACCGTCAG,-0.247
6,CGCAGGAC,-0.159
7,CATATATG,0.155
8,TACTTGGA,0.255
9,ATACAGCA,0.176
10,GTGACGGA,-0.201
11,CAGCCGGG,-0.171
12,CGCGACTA,0.0239
13,GGCCCTGA,-0.143
14,TATGTTAA,0.459
15,AATGTCAT,0.178
16,AAAAGACT,-0.0487
17,CGCTCTAA,0.0196
18,GACGAGAC,-0.139
19,TAGAGTCA,-0.178
